Results published in PMC4336329 (PLoS ONE, 2015).
Screen size: about 310,000 compounds; about 14,000 (4.5%) showed an effect of 50% or more. Effects have a minus sign here. The list shows a part of the results.

The compounds below were run against human ether-à-go-go-related gene (hERG) potassium channel (human, UniProt Q12809) (assay: primary screen, population patch clamp on CHO cells stably expressing hERG).
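Further: peak tail current of the secondary pulse compared with the same well before compound.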

Sequence of human ether-à-go-go-related gene (hERG) potassium channel (Q12809 whole entry, looked up): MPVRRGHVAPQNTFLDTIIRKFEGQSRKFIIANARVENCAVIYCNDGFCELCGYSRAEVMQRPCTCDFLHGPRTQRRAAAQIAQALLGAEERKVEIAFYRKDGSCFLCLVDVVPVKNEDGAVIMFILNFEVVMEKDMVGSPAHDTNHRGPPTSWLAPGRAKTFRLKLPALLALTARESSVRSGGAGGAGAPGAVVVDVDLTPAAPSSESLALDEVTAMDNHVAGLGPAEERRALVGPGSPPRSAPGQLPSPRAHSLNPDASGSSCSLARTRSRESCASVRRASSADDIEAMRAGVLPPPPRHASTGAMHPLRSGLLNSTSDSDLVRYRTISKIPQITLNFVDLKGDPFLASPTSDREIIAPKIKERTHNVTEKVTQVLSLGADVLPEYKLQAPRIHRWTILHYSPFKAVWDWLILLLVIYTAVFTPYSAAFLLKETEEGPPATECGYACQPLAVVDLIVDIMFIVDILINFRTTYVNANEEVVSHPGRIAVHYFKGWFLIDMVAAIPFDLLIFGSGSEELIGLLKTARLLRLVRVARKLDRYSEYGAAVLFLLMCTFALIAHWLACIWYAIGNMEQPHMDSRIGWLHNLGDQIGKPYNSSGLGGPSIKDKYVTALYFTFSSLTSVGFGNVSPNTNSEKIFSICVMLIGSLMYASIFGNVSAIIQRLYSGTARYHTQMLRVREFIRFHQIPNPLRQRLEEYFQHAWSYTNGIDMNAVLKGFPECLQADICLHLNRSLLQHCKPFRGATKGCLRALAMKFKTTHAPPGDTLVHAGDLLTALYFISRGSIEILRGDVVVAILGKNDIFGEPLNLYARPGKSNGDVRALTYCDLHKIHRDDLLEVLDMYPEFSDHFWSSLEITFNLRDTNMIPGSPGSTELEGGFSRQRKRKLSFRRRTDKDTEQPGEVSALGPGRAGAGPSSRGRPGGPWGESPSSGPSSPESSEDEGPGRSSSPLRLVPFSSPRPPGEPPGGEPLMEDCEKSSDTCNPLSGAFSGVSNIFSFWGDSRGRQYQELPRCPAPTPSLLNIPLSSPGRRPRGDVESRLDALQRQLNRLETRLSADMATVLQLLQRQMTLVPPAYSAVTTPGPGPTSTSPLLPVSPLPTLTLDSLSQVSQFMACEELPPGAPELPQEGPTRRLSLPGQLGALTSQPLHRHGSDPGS

SMILES	hERG current change (%, negative = inhibition) at 10uM [%]
CCc1ccc(-c2n[nH]c(=O)c3ccccc23)cc1	6.01
CCOC(=O)c1cc(NC(=O)NC2CCCCC2)c(C)nc1C	17.3
O=C(CSc1ccc2c(c1)OCCO2)Nc1ccc(Br)cn1	17
COc1ccc(C2=Nn3c(nnc3-c3ccccn3)SC2)cc1	-34.3
Cc1ccccc1S(=O)(=O)N(CC(O)CN1CCCCC1)c1ccccc1 (stereo not drawn)	-71.7
Nc1nc(N2CCCCC2)nc(N(c2ccccc2)c2ccccc2)n1	17.1
COc1ccccc1-c1noc(-c2ccncc2)n1	6.52
Cc1onc(-c2ccccc2Cl)c1C(=O)NC(=S)Nc1ccc(C(C)(C)C)cc1	11.6
CCOc1ccc(NC(=O)CSC2=NN3CCCC(=O)N=C3S2)cc1	21.5
CC(C)CN(CCCNC(=O)CC1Oc2ccccc2NC1=O)CC(C)C (stereo not drawn)	-14
COc1ccc(-n2nnc3c(=O)n(Cc4ccccc4C)cnc32)cc1	-2.1
Cc1ccc(C(=O)N/N=C\c2ccc([N+](=O)[O-])o2)cn1	-11.1
Cc1cccc(-c2nsc(SCC(=O)Nc3nccs3)n2)c1	24.8
O=C(O)c1cc2n(n1)C(C(F)(F)F)CC(c1ccco1)N2 (stereo not drawn)	22.2
CCc1cccc(NC(=O)CSc2nnc(Cc3ccc(OC)cc3)c(=O)[nH]2)c1	4
CCOCc1nnc(NC(=O)c2cc(OC)c(OC)c(OC)c2)s1	7.16
Cn1nc(C(=O)OCC(=O)c2ccc(Br)cc2)c2ccccc2c1=O	8.6
COc1ccccc1N1C(=O)N(CC(=O)C(C)(C)C)c2ccccc2S1(=O)=O	15.1
COc1ccc(C2/C=C\CN(C(=O)Oc3ccc(C(F)(F)F)cc3)CC(=O)N2Cc2ccc(F)cc2)cc1 (stereo not drawn)	-9.5
CCOC(=O)N1CCN(Cc2nc(Cc3cccc(C(F)(F)F)c3)no2)CC1	-15
CN(C)CCNC(=O)c1c(CSc2ccc(Cl)cc2)noc1C(=O)NCc1ccccc1	-7.93
C/[N+]([O-])=C/c1c(OCc2ccc(Cl)cc2Cl)ccc2ccccc12	20.4
Cc1ccc(NS(=O)(=O)c2ccc(N3CCN(c4ccc(O)cc4)CC3)c([N+](=O)[O-])c2)c(C)c1	2.66
O=C(Nc1ccc([N+](=O)[O-])cn1)C1CC2CCC1C2 (stereo not drawn)	-15.3
